Test results reported in PubChem BioAssay AID463173 (ICCB-Longwood Screening Facility, Harvard Medical School, 2010).
Screen size: about 52,000 compounds; about 4,300 (8.3%) were called active. Rule as the data show it: active = survival mostly below about 52% (no sharp cut-off); inactive = mostly above about 56%. Some of the results follow.

system: DeltatarO mutant; test: S. aureus survival, RN4220 and DeltatarO strains – OD600, teichoic acid synthesis inhibitors, primary screen (AID 463173); settings: S. aureus RN4220 wild type/DeltatarO growth, OD600, 18 h, hits give low values, screened at 18.75 µg/mL (by protocol)

SMILES	survival
CC(=O)N(CCCN1CCOCC1)Cc1ccncc1	inactive: 81%
Cc1nc(C)c(-c2csc(NCc3ccccc3)n2)s1	active: 65%
CCC(=O)Nc1ccc(N2CCCCC2)cc1	inactive: 71%
COC(=O)c1cc2sccc2n1Cc1ccc(F)cc1	inactive: 124%
CCCCC(=O)Nc1nnc(S(=O)(=O)N2CCCCCC2)s1	inactive: 77%
Cc1ccc(C)c(CNC(=O)C2CCCCN2S(=O)(=O)c2ccc(F)cc2)c1 (stereo unspecified)	inactive: 112%
Cc1ccc(C)c(N2CCN(C(=O)CN3C(=O)COc4ccc(S(=O)(=O)N5CCOCC5)cc43)CC2)c1	inactive: 76%
CCOc1ccc(NC(=O)c2cccc(N3CCCS3(=O)=O)c2)cc1	inactive: 90%
CCN(c1cccc(C)c1)C(CNS(=O)(=O)c1ccccc1)c1ccccc1 (stereo unspecified)	inactive: 100%
CSc1ccc(NC(=O)NCCn2cnc3cccnc32)cc1	inactive: 104%
Cc1cccc(-c2cc(NC(=O)c3ccccc3C)n(-c3ccccc3)n2)c1	inactive: 80%
COc1ccc(-c2noc(-c3ccccc3OCC(=O)Nc3ccc(C(C)=O)cc3)n2)cc1	inactive: 57%
O=C(Cn1ncc2c3ccccc3n(Cc3ccccc3)c2c1=O)N1CCCCCC1	inactive: 82%
O=C(NC(c1ccccc1)c1ccccc1)C1CCCO1 (stereo unspecified)	inactive: 99%
CCc1cccc(NC(=O)Cn2c(C(=O)OC)cc3occc32)c1	inactive: 92%
CC(C)OC(=O)CN1CCN(C2CCCCC2)CC1	inactive: 89%
COCCCn1c(SCc2ccccc2F)nc2c(sc3ccccc32)c1=O	inactive: 77%
COc1ccccc1NC(=O)Cn1c(=O)n(-c2ccccc2Cl)c(=O)c2sc3ccccc3c21	inactive: 77%
c1nc(N2CCCC2)c2c3c(sc2n1)CCC3	inactive: 70%
Cc1ccc(C)c(NC(=O)c2cc(S(=O)(=O)N3CCc4ccccc4C3)ccc2F)c1	inactive: 55%
COc1ccccc1CNC(=O)c1cc2sccc2n1Cc1ccc(F)cc1	inactive: 108%
COc1ccc(CN(Cc2nc3ccccc3c(=O)[nH]2)C(=O)NCc2ccccc2)cc1	inactive: 79%
CCCS(=O)(=O)c1c(S(=O)(=O)CCC)c2cc(C(C)(C)C)ccn2c1C(=O)c1ccc(OC)c(OC)c1	inactive: 124%

SMILES	survival
COc1ccc(C2C=C(c3ccc(C)cc3)Nc3c(C(=O)Nc4ccccc4)cnn32)cc1 (stereo unspecified)	active: 53%
COc1ccc(Br)cc1CNC(=O)CCCn1c(=O)c2cccn2c2cccnc21	inactive: 106%
COc1cc(NC(=O)Cn2c(C)cc(C)c(C#N)c2=O)cc(OC)c1	inactive: 96%
CCn1cc(C(=O)NCCc2ccc(Cl)cc2)c(=O)c2cc(S(=O)(=O)N3CCOCC3)ccc21	inactive: 80%
Cc1cccc2cc(CN(C(=O)c3ccco3)C3CCCC3)c(=O)[nH]c12	inactive: 51%
C=CCn1c(C(CC)CC(C)(C)O)n[nH]c1=S (stereo unspecified)	inactive: 103%
CCOC(=O)c1[nH]c2ccccc2c1NC(=O)c1cc(Cl)ccc1Cl	inactive: 67%
CCN(CC)S(=O)(=O)c1ccc2c(c1)N(CC(=O)Nc1ccc(F)cc1F)C(=O)C1CCCN21 (stereo unspecified)	inactive: 76%
COc1ccc(CNC(=O)CCCCCn2c(=O)[nH]c3ccccc3c2=O)cc1	inactive: 86%
Cc1cc(C)c2oc(-c3ccc(NC(=O)c4cc(Br)ccc4Cl)cc3)nc2c1	inactive: 89%
COc1cccc2cc(C(=O)Nc3ccc(S(=O)(=O)N4CCOCC4)cc3)c(=O)oc12	inactive: 99%
Cc1ccc(NC(=O)CCc2nc3cccnc3n2-c2ccccc2)cc1	inactive: 80%
O=C(Cn1c(=O)n(Cc2ccc(C(=O)NCc3ccccc3Cl)cc2)c(=O)c2ccccc21)Nc1ccc(F)cc1	inactive: 89%
Cc1coc2cc3oc(=O)c(CC(=O)NCCc4ccccc4F)c(C)c3cc12	inactive: 83%
CC(C)(C)C(=O)Nc1ccc(Cl)c(-c2nc3ccccc3[nH]2)c1	inactive: 44%
O=C(CC(c1cccs1)N1Cc2ccccc2C1=O)Nc1ccc(Cl)cc1 (stereo unspecified)	inactive: 131%
COc1ccccc1Cc1nc2ccccc2nc1SCC(=O)NCc1ccc(F)cc1	inactive: 75%
NC(=O)CSc1nnc(COc2ccccc2)n1C1CCCCC1	inactive: 84%
CCCC(C(=O)NC1CCCC1)N(C(=O)Cn1nnc(-c2ccc(C)o2)n1)C1CCCC1 (stereo unspecified)	inactive: 57%
COc1ccccc1Nc1nc2c(S(=O)(=O)c3ccc(C(C)C)cc3)nnn2c2ccsc12	inactive: 93%
Cc1ccc2c(=O)cc(C(=O)Nc3ccc(S(=O)(=O)N4CCCCC4)cc3)oc2c1C	inactive: 90%
Cc1cccc(N2CCN(c3ncnc4onc(-c5ccc(F)cc5)c34)CC2C)c1 (stereo unspecified)	inactive: 77%
CCOc1ccc2nc(Cl)c(C3CC(c4ccc(C)cc4)=NN3C(=O)CCCC(=O)O)cc2c1 (stereo unspecified)	inactive: 53%

SMILES	survival
COc1ccccc1C1C(C(N)=O)=C(C)Nc2nc(SCc3ccccc3F)nn21 (stereo unspecified)	inactive: 76%
Cc1c(C(=O)N(C)C)sc2c1c(=O)n(-c1ccc(Cl)c(Cl)c1)c(=O)n2Cc1ccc(F)cc1	inactive: 105%
O=C(Nc1cccc(C(=O)OCc2cc(=O)n3nc(C4CC4)sc3n2)c1)c1ccc(F)cc1	inactive: 70%
CC(=O)c1ccc(S(=O)(=O)N2CCC(Oc3ccc(-n4cnnn4)cc3)CC2)cc1	inactive: 81%
COc1ccc(S(=O)(=O)Nc2ccc(O)c(Sc3nc4ccccc4s3)c2)cc1	inactive: 98%
CCc1ccc(NC(=O)CN2C(=O)C(=O)c3ccccc32)cc1	inactive: 79%
O=C(Nc1cccc(Cl)c1)N1Cc2ccccc2Oc2ncccc21	inactive: 112%
CCCC(=O)NC1CC(=O)N(c2ccc3c(c2)OCCO3)C1 (stereo unspecified)	inactive: 90%
CCn1cc(C(=O)N(C)Cc2ccccc2)c(=O)c2cc(S(=O)(=O)N3CCCCC3)ccc21	inactive: 91%
Cc1cccc(N2CCN(C(=O)Cn3nc(C)c4sc5ccccc5c4c3=O)CC2C)c1 (stereo unspecified)	inactive: 98%
COc1ccc(-c2onc(C)c2C)cc1S(=O)(=O)NC1CCCCC1	inactive: 72%
CCOc1ccccc1NC(=O)c1ccc2oc(=O)c(S(=O)(=O)c3ccc(F)cc3)cc2c1	inactive: 67%
CN(C(=O)CSc1nc2ccc(NC(=O)c3ccc(F)cc3)cc2s1)c1ccccc1	inactive: 64%
O=C(Nc1ccccn1)C1(c2ccccc2)CCCC1	inactive: 93%
Cc1ccccc1CCNC(=O)c1cc2ccccn2n1	inactive: 82%
CCOCCn1ccc2c(OCC(=O)Nc3cc(C(F)(F)F)ccc3Cl)cccc2c1=O	inactive: 102%
COc1ccccc1Cn1c(CNS(=O)(=O)c2c(C)cc(C)cc2C)nc2cccnc21	inactive: 126%
COc1ccccc1C/C(N)=N/OC(=O)c1ccccc1	inactive: 71%
CCOC(=O)c1cccc(NC(=O)CCc2c(C)nc3c4cccnc4nn3c2C)c1	inactive: 100%
CCOC(=O)Cn1nc(N2CCN(c3ccc(F)cc3)CC2)ccc1=O	inactive: 78%
COC(=O)C1=C(c2ccccc2)c2ccccc2S(=O)(=O)N1CC(=O)Nc1cc(C)ccc1C	inactive: 58%
Cc1ccc(CN2C(=O)C3(SCC(=O)N3c3ccc(C)c(C)c3)c3ccccc32)cc1 (stereo unspecified)	inactive: 99%
Cc1cccc(N2CCN(c3c(CN4CCCC4)c(=O)oc4ccccc34)CC2)c1C	inactive: 87%

SMILES	survival
CSc1ccc(Nc2nn(-c3ccc(OC(F)(F)F)cc3)nc2C(C)=O)cc1	inactive: 86%
Cc1c(C(=O)N2CCOCC2)oc2c1-c1nn(CC(=O)NCc3ccccc3)cc1CC2	inactive: 79%
C=CCNC(=O)Nc1ccc2oc(C)nc2c1	inactive: 103%
Nc1c2c(nc3c1CCC3)CCCC2	inactive: 87%
COCCNC(=O)C(=O)Nc1ccc2nc3n(c(=O)c2c1)CCCCC3	inactive: 97%
C=Cc1ccc(Cn2c(C(=O)O)c(CNCc3cc(OC)ccc3OC)c3ccc(C)cc32)cc1	inactive: 88%
COc1ccc(-c2nc(C)c(CCNC(=O)c3cccc(C)c3)s2)cc1OC	inactive: 86%
COc1ccc(CCNC(=O)C(C)n2nc(C)c3sc4ccccc4c3c2=O)cc1OC (stereo unspecified)	inactive: 110%
CCOc1ccc(C2C(C(=O)Nc3ccc(C)cc3C)=C(C)Nc3c(C(=O)Nc4ccc(C)cc4)cnn32)cc1OC (stereo unspecified)	inactive: 94%
CCC12CN3CC(C)(CN(C1)C3c1c(C)[nH]c3ccccc13)C2=O (stereo unspecified)	inactive: 83%
COc1ccc(-c2nc3c(C#N)c[nH]n3c2NC2CCCCC2)cc1	inactive: 49%
COc1ccc(C2NC(=O)N(C)C3=C2C(=O)N(c2ccccc2)C3)cc1 (stereo unspecified)	inactive: 78%
O=C(O)CCn1c(=S)n(CCC(=O)O)c2ccccc21	inactive: 107%
Cc1ccc(-n2nc(C)c3c(C)c(CCC(=O)NCc4cccc(Cl)c4)c(C)nc32)cc1C	inactive: 98%
CC(=O)c1cccc(NC(=O)c2ccc3c(c2)CCN3S(=O)(=O)c2ccccc2)c1	active: 44%
CCn1cc(S(=O)(=O)c2ccccc2)c(=O)c2cc(F)c(N3CCCCCC3)cc21	inactive: 80%
Cc1cccc(C(=O)Nc2cc3c(cc2N2CCCCC2)n(C)c(=O)n3C)c1	inactive: 71%
CCOc1ccc(CCNC(=O)c2cc3cc4ccc(OC)cc4nc3s2)cc1OCC	inactive: 83%
O=C(CSc1c2c(nc3ccc(Cl)cc13)CCCC2)N1CCCCC1	active: 22%
Cc1ccccc1OCC(=O)Nc1ccc(S(=O)(=O)Nc2ncccn2)cc1	inactive: 133%
Cc1ccc(NC(=O)n2ncc3c(C)cccc32)c(C)c1	inactive: 85%
CCc1nn(CC(=O)N2CCN(c3cccc(C)c3)C(C)C2)c(=O)c2cc3sccc3n12 (stereo unspecified)	inactive: 135%
